Test results reported in PubChem BioAssay AID588855 (National Center for Advancing Translational Sciences (NCATS), 2011).
In all, about 410,000 compounds went through this assay and about 5,000 (1.2%) were called active. This list was built around the results that the source calls inconclusive (neither active nor inactive); the mix of calls is not that of the screen. The call rests on the fitted dose curve; in most records, active means well fitted inhibition curve with a large enough effect; inconclusive means small, poorly fitted or top-dose-only effect; inactive means no such curve, though single readings can be large or run the other way. A potency beside an inconclusive call is a rough fit, not a confirmed value.

Test: qHTS for Inhibitors of TGF-b; further: nearly all actives have a fitted effect of over 65% in size
Settings: HepG2 CAGA-GFP TGF-b/SMAD3 reporter, GFP fluorescence, 18 h, TGF-beta stimulated, 500 pg/mL final; series mostly up to 46.1 µM; activity, negative = inhibition: at the top concentration
How it was run: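 First, reporter cells (HEPG2 CAGA-GFP) rested 2 h at 37 degrees C. Next, compounds were pinned in and TGF-beta added to 500 pg/mL final. After 18 h, GFP was imaged per cell and summed per well.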
On the % scale 0 is the no-effect control and ±100 the full control effect; potency means the concentration at half of the fitted maximal effect; tags describe the fitted curve by direction and shape.

SMILES | Potency | activity, negative = inhibition
COc1cc(C2c3c(-c4ccccc4O)n[nH]c3C(=O)N2Cc2ccco2)ccc1OCC(C)C (stereo not given) | inconclusive: 35.5 µM [inhibitor, single point] | –
COc1ccc(-c2nc(CS(=O)CC(=O)NC3CCC(C)CC3)c(C)o2)cc1OC (stereo not given) | – | inactive: 3.67%
Cc1ccc(Cc2c(C(C)(C)C)nc3cc(C)c(Br)c(C)n23)cc1 | inconclusive: 7.94 µM [inhibitor, partial curve, poor fit] | –
CN(CCCNC(=O)c1cccn2c(=O)c3ccccc3nc12)Cc1ccccc1 | active: 11.2 µM | –
CCCCNC(=O)CN(c1cc(C(F)(F)F)ccc1Cl)S(C)(=O)=O | inconclusive: 35.5 µM [inhibitor, single point] | –
NC(CCc1ccccc1)c1csc(Nc2ccc(C(F)(F)F)cn2)n1 (stereo not given) | inconclusive: 17.8 µM [inhibitor, single point] | –
CCc1ccc(NS(=O)(=O)c2cc(-c3cnc(C4CC4)o3)ccc2C)cc1 | inconclusive: 35.5 µM [inhibitor, single point] | –
CN1CCCCc2c1nc1ccccc1c2N (tested in a mixture with another compound) | – | inactive: -7.15%
CN(Cc1ccco1)S(=O)(=O)c1ccc(CN2C(=O)c3cccnc3C2=O)s1 | inconclusive: 1.12 µM [inhibitor, partial curve, poor fit] | –
CC(C)(C)C(=O)Nc1nnc(COc2ccc(Cl)cc2)s1 | – | inactive: 19.9%
Cc1ccc(CNC(=O)C2COc3ccccc3C2)cc1 (stereo not given) | – | inactive: 2.53%
Cc1nnc(NCc2n[nH]c(=O)c3ccccc23)c2ccccc12 | inconclusive: 22.4 µM [inhibitor, single point] | –
CCN1CCN(c2cc(C(C)C)nc3c(-c4ccccc4)c(C)nn23)CC1 | inconclusive: 35.5 µM [inhibitor, single point] | –
COc1ccccc1CNC(=O)CC(c1ccc(C)cc1)N1Cc2ccccc2C1=O (stereo not given) | – | inactive: 38.6%
CN(c1ccc(OCC(=O)Nc2nc(-c3ccccc3)cs2)cc1)S(=O)(=O)c1ccc(F)cc1 | inconclusive: 35.5 µM [inhibitor, single point] | –
CC(CCc1ccccc1)NC(=O)c1ccc(-n2cncn2)c([N+](=O)[O-])c1 (stereo not given) | – | inactive: -2.56%
COc1ccccc1Cn1c(/C=C/c2ccccc2)nc2ccccc21 | inconclusive: 17.8 µM [inhibitor, single point] | –
O=C1c2ccccc2[C@@H]2C[C@@H](O)[C@H](Nc3cccc4ccccc34)CCN12 | inconclusive: 7.08 µM [inhibitor, partial curve, poor fit] | –
Cc1cc(C)cc(-n2ccn(Cc3ccccc3C)c(=O)c2=O)c1 | inconclusive: 12.6 µM [inhibitor, partial curve, poor fit] | –
COc1ccc(CCNC(=O)CCS(=O)(=O)c2cc(Br)cc3c2N(C(C)=O)CC3)cc1OC | – | inactive: -20.5%
COc1ccc(-c2noc(C3CCCN(C(=O)c4ccc(C)cc4)C3)n2)cc1 (stereo not given) | inconclusive: 35.5 µM [inhibitor, partial curve, poor fit] | –
CC1Sc2ccc(C(=O)N(CCc3ccccc3)Cc3ccccc3)cc2NC1=O (stereo not given) | inconclusive: 25.1 µM [inhibitor, single point] | –

SMILES | Potency | activity, negative = inhibition
Cc1cccc(NC(=O)COC(=O)c2cccc3c2C(=O)c2ccccc2C3=O)c1C | inconclusive: 7.08 µM [inhibitor, full curve, poor fit] | –
COc1ccc(CSc2nc3ccncc3n2CC(=O)Nc2ccc(C)c(F)c2)cc1 | inconclusive: 8.91 µM [inhibitor, partial curve, poor fit] | –
COc1ccc(/C(C)=N/NC(=S)NCCc2ccccc2)c(O)c1 | inconclusive: 3.98 µM [inhibitor, partial curve, poor fit] | –
Cc1ccccc1C(=O)Nc1ccc2nc(SCC(=O)N3CCc4ccccc43)sc2c1 | – | inactive: -8.74%
CCc1ccc(C2=NN(CCC(=O)NCCc3ccc(OC)c(OC)c3)C(=O)CC2)cc1 | inconclusive: 11.2 µM [inhibitor, partial curve] | –
CCCOc1ccc(-c2nonc2NC(=O)c2cc(OC)c(OC)c(OC)c2)cc1OCCC | – | inactive: -0.0058%
O=c1c2c3c(sc2nc2n1CCCCC2)CCCC3 | – | inactive: -3.08%
CCOC(=O)C1=CCN(S(=O)(=O)c2ccc(C)cc2)C1c1ccc(Cl)cc1 (stereo not given) | inconclusive: 17.8 µM [inhibitor, single point] | –
CCN(CC)C(=O)N1c2ccccc2CC(N(CC)CC)c2ccccc21 (stereo not given) | – | inactive: -10.2%
COc1ccccc1CNS(=O)(=O)c1ccc(-c2cnc(C3CC3)o2)cc1 | active: 11.2 µM | –
COc1ccnc(Oc2ccccc2)c1C(=O)N/C=N/OCc1ccc(F)cc1Cl | inconclusive: 12.6 µM [inhibitor, partial curve, poor fit] | –
CCOC(=O)c1sc(NC(=O)c2ccc(OC(C)=O)cc2)nc1C | – | inactive: 0.264%
CC(=O)OC1c2c(ccc3ccc(=O)oc23)OC(C)(C)C1OC(=O)CC(C)C (stereo not given) | inconclusive: 25.1 µM [inhibitor, single point] | –
CCCn1c(SCC(=O)Nc2ccccc2N2CCCCC2)nc2c1c(=O)n(C)c(=O)n2C | inconclusive: 0.562 µM [inhibitor, full curve, poor fit] | –
CCOC(=O)C1=C(COC(=O)COc2cc(C)ccc2C)NC(=O)NC1C (stereo not given) | inconclusive: 5.62 µM [inhibitor, single point] | –
CC(C)Cn1c(-c2ccc(Br)cc2)c[nH]c1=S | inconclusive: 22.4 µM [inhibitor, single point] | –
CCOC(=O)CSc1nnc2n(-c3ccccc3)c(=O)c3c4c(sc3n12)CC(C(C)(C)C)CC4 (stereo not given) | inconclusive: 35.5 µM [inhibitor, single point] | –
CSc1nc(Cl)cc(Nc2ccc(O)cc2)n1 | inconclusive: 35.5 µM [inhibitor, single point] | –
CCOC(=O)c1nnn(-c2nonc2-n2cccc2)c1CCl | inconclusive: 35.5 µM [inhibitor, single point] | –
Cn1nc(C(C)(C)C)cc1C(=O)N1CCCCC1c1cc(C(=O)Nc2ccccc2Cl)no1 (stereo not given) | inconclusive: 11.2 µM [inhibitor, partial curve] | –
Cc1ccc(N/N=C(\Cc2nc3ccccc3[nH]2)c2ccccc2)cc1 | inconclusive: 7.94 µM [inhibitor, partial curve, poor fit] | –
Cc1cccc(-n2cnc3c(sc4nc(N5CCOCC5)c5c(c43)CCCC5)c2=O)c1 | – | inactive: 32.5%

SMILES | Potency | activity, negative = inhibition
CCCCCSc1nc2sc3c(c2c(=O)n1-c1ccc(OC)cc1)CCN(C(C)=O)C3 | inconclusive: 15.8 µM [inhibitor, partial curve, poor fit] | –
O=C1OCCN1C(=O)[C@H]1[C@H](c2ccc([N+](=O)[O-])cc2)C(c2cccc(Cl)c2)=NN1c1ccc(Br)cc1 | inconclusive: 8.91 µM [inhibitor, partial curve] | –
O=C(COC(=O)c1nc(Cl)ccc1Cl)NC(=O)c1ccccc1 | – | inactive: -0.578%
CSc1ccccc1NC(=O)CN(C)C(C)C(=O)NCc1ccc2c(c1)OCO2 (stereo not given) | – | inactive: -7.4%
Cc1ccc(Nc2c(-c3ccsc3)nc3c(C)cccn23)cc1 | inconclusive: 35.5 µM [inhibitor, single point] | –
COc1ccccc1CNC(=O)Cn1ncn2c(cc3sccc32)c1=O | – | inactive: -17.6%
CC(C)N=C1NN=C(c2ccc(Cl)c(Cl)c2)CS1 | inconclusive: 35.5 µM [inhibitor, single point] | –
CCN(Cc1nc2ccccc2c(=O)[nH]1)Cc1cc(=O)oc2cc(C)c(C)cc12 | inconclusive: 5.62 µM [inhibitor, full curve] | –
Cc1ccc(N2CCN(c3ncccc3[N+](=O)[O-])CC2)c(C)c1 | inconclusive: 14.1 µM [inhibitor, single point] | –
COc1ccccc1C(=O)Nc1ccnn1C1CCN(Cc2cn(C)c3ccccc23)CC1 | active: 11.2 µM | –
COc1cccc(CN(C)C(=O)Cc2ccc(OC)c(S(=O)(=O)N3CCOCC3)c2)c1 | inconclusive: 35.5 µM [inhibitor, single point] | –
COc1ccc(NC(=O)c2nc(C)c(C3(C)CC(c4cccnc4)=NO3)s2)cc1 (stereo not given) | inconclusive: 3.55 µM [inhibitor, partial curve, poor fit] | –
CC(C)c1ccc(/C=C/C(=O)NCCCc2ccccc2)cc1 | inconclusive: 0.112 µM [inhibitor, full curve, poor fit] | –
O=C(OCC(=O)N1CCCCC1)c1ccccc1SCC(=O)N1CCCCC1 | inconclusive: 6.31 µM [inhibitor, single point] | –
CCN(CC)c1ccc(NC(=O)c2ccccc2)cc1S(=O)(=O)Nc1ccccc1OC | – | inactive: -13.6%
CCN(CC)CCN(C(=O)c1ccc(C(C)=O)cc1)c1nc2ccc(Cl)cc2s1 | inconclusive: 35.5 µM [inhibitor, single point] | –
CC(C)C(OC(=O)CN1C(=O)COc2ccccc21)C(=O)NC1CCCC1 (stereo not given) | – | inactive: -13.8%
CC(C)C[C@H]1CNC(=S)N1CC1CCN(CCCCc2ccccc2)CC1 | inconclusive: 31.6 µM [inhibitor, single point] | –
O=S(=O)(Nc1cccc(C(F)(F)F)c1)c1ccc(-c2cnc(C3CC3)o2)cc1 | inconclusive: 14.1 µM [inhibitor, partial curve, poor fit] | –
O=C(NNC(=S)NCc1ccco1)c1cccs1 | inconclusive: 3.16 µM [inhibitor, single point] | –
O=C(CCc1c[nH]c2ccccc12)OCC(=O)N1CCN(S(=O)(=O)c2ccccc2)CC1 | inconclusive: 6.31 µM [inhibitor, full curve] | –
